Measured values reported in PubChem BioAssay AID624296 (National Center for Advancing Translational Sciences (NCATS), 2012).
About 9,900 (2.8%) of roughly 350,000 compounds were called active. Inconclusive results, whose numbers are uncertain, are shown with a selection of clear calls. The call rests on the fitted dose curve; in most records, active means well fitted activation curve with a large enough effect; inconclusive means small, poorly fitted or top-dose-only effect; inactive means no such curve, though single readings can be large or run the other way. No potency is given beside an inconclusive call; the fits are too rough.

Assay: A quantitative high throughput screen for small molecules that induce DNA re-replication in MCF 10a normal breast cells. Further: nearly all actives have a fitted effect of over 50% in size. On activity, positive = re-replication: % of control where 0% means no effect.
Conditions: MCF 10A DNA re-replication, Hoechst nuclear intensity, 48 h; activity, positive = re-replication: at 46.1 µM (top of the series)
Potency means the concentration at half of the fitted maximal effect; tags describe the fitted curve by direction and shape.

Compound	activity, positive = re-replication	Potency
CN(C)C1=NC[C@H](Cc2ccccc2)N1CCCC1CCCCC1	inactive: 14.4%	–
O=c1[nH]c(SCc2ccc(F)cc2Cl)nc2ccccc12	–	inconclusive [activator, single point]
Cc1ccc(CN2[C@@H](Cc3ccccc3)C(=O)CS2(=O)=O)cc1	–	inconclusive [activator, single point]
Cc1ccc(C)c(NC(=S)NC(NC(=O)Cc2cccc3ccccc23)C(Cl)(Cl)Cl)c1 (stereo not given)	–	inconclusive [activator, partial curve, poor fit]
CCC(=O)N1CCc2cc(-c3csc(NC(=O)c4ccco4)n3)ccc21	–	inconclusive [activator, single point]
Cc1ccc(-c2nn(-c3ccccc3)cc2/C=C/C(=O)OCC(=O)NC2CC2)o1	–	inconclusive [activator, single point]
Cc1ccc(C)c(CNC(=O)Nc2ccccc2)c1	–	inconclusive [activator, single point]
O=S(=O)(c1cccs1)N1CN(C2CCCC2)c2nc3ccccc3nc21	–	inconclusive [activator, partial curve, poor fit]
O=C(NN1C(=O)C2C(c3ccccc3)C=CC(c3ccccc3)C2C1=O)c1cccc(Br)c1 (stereo not given)	–	inconclusive [activator, single point]
CCO[C@H]1OC(C(=O)Nc2ccccc2)=C[C@@H](c2ccc(Br)cc2)[C@@H]1CCCO	–	inconclusive [activator, single point]
CCOc1ccc(NC(=O)CN(C)C(=O)c2cn(-c3ccc(C)cc3)nc2-c2cccc(OC)c2)cc1OCC	–	inconclusive [activator, partial curve, poor fit]
CC1Nc2ncnc(N3CCc4ccccc4C3)c2N(Cc2ccc(Br)cc2)C1=O (stereo not given)	–	inconclusive [activator, full curve, poor fit]
CCCN(CC(=O)Nc1ccccc1OC)C(=O)Cn1c(=O)oc2ccccc21	inactive: 0.547%	–
CCCCC1CCC(C(=O)N(CCCC)c2c(N)n(CCCC)c(=O)[nH]c2=O)CC1 (stereo not given)	–	inconclusive [activator, single point]
O=[N+]([O-])c1ccc(Sc2nccn2Cc2ccccc2)c([N+](=O)[O-])c1	–	active: 20.6 µM
COCCn1c(C(C)C)nc2sc3ccccc3c(=O)c2c1=O	–	inconclusive [activator, single point]
O=C1NCCN(CC2CCN(CC3CCCC3)CC2)C1=O	–	inconclusive [activator, full curve, poor fit]
COc1ccc(/C=C/C(=O)N2CCCc3ccccc32)c(OC)c1	–	inconclusive [activator, single point]
COc1cccc(-c2cc(C(=O)NCc3ccco3)c3ccccc3n2)c1	–	inconclusive [activator, single point]
COc1cc(O)c(C(CCN2CCCC(C)C2)c2ccc(N(C)C)cc2)c(OC)c1 (stereo not given)	–	inconclusive [activator, partial curve, poor fit]
Cc1ccc(/C=C2\SC(=S)N(c3cccnc3)C2=O)cc1	–	inconclusive [activator, single point]
CC(=O)c1ccc(N2CCN(S(=O)(=O)c3ccc4c(c3)NC(=O)CO4)CC2)cc1	–	inconclusive [activator, partial curve]
CCc1ccc(OCC(=O)c2c(O)c3ccccc3oc2=O)cc1	–	inconclusive [activator, partial curve, poor fit]
O=C(COC(=O)c1ccccc1F)NC(=O)NC1CCCC1	inactive: -0.0206%	–

Compound	activity, positive = re-replication	Potency
COc1ccc(NS(=O)(=O)c2ccc3oc(SC(C)C(N)=O)nc3c2)cc1 (stereo not given)	inactive: -10.3%	–
CC1CCC(CN2C(Nc3ccccc3)=NC[C@@H]2Cc2ccccc2)CC1 (stereo not given in full)	inactive: 3.2%	–
CN1CCN(c2ncnc3c2c(-c2ccccc2)cn3-c2ccc(F)cc2)CC1	–	inconclusive [activator, single point]
Cc1ccc(-c2cc3nc(-c4ccccc4)cc(N4CCOCC4)n3n2)cc1	–	active: 16.4 µM
COc1cc(NC(=O)COc2ccccc2Cl)ccc1NC(=O)c1cccs1	–	inconclusive [activator, single point]
O=C(COC(=O)c1ccccc1NCCO)NCc1cccs1	–	inconclusive [activator, full curve, poor fit]
Cn1cc(C(=O)N/N=C/C(Br)=C/c2ccccc2)ccc1=O	–	active: 25.9 µM
Cc1cc(=O)n2c3ccccc3n(CC(O)CN3CCN(CCO)CC3)c2c1C#N (stereo not given)	inactive: -1.07%	–
COc1ccc2oc(C(=O)Nc3ccc(N4CCOCC4)cc3)c(C)c2c1	–	inconclusive [activator, single point]
CC(C)(C)NC(=O)C(c1ccc(F)cc1)N(Cc1ccco1)C(=O)c1csnn1 (stereo not given)	inactive: 0.679%	–
O=[N+]([O-])c1ccc2c(c1)ncn2-c1ccccc1	inactive: -40.8%	–
CN(C)C(=O)COc1ccc2c3c(c(=O)oc2c1)CCCC3	–	inconclusive [activator, single point]
CCOC(=O)C1CCCN(C2CC(=O)N(c3ccc(NC(C)=O)cc3)C2=O)C1 (stereo not given)	–	inconclusive [activator, partial curve, poor fit]
Cc1cc(C)cc(NC(=O)CSCc2cnn(-c3ccccc3)c2-n2cccc2)c1	–	inconclusive [activator, single point]
O=C(NC(=S)Nc1cccc(NC(=O)c2ccc(Cl)cc2Cl)c1)c1cccs1	inactive: 10.9%	–
COc1ccc(C2CC(c3ccccc3)=NN2C(=O)COC(=O)c2cccc(O)c2)cc1 (stereo not given)	–	inconclusive [activator, single point]
COC(=O)/C=C/c1ccc2c(c1)S(=O)(=O)N(Cc1ccc(OC)cc1)[C@H]2CC(=O)OC	–	inconclusive [activator, single point]
COc1ccccc1CCCNC(=O)C1CCC(=O)N(CCc2ccc(Cl)cc2)C1 (stereo not given)	–	inconclusive [activator, partial curve, poor fit]
CCOc1ccccc1NC(=O)Cn1nnc(C(=O)NCc2ccco2)c1N	–	active: 0.126 µM
CC(=O)N1CCN(C(=O)c2cc3ccccc3o2)CC1	inactive: -19.2%	–
CC(C)C1COC(c2cccc3ccccc23)=N1 (stereo not given)	inactive: -7.07%	–
N#CCCn1cc(/C=C2\NC(=S)N(c3ccccc3)C2=O)c(-c2ccc(-c3ccccc3)cc2)n1	–	active: 5.8 µM
O=C(/C=C1\SC(=O)NC1=O)Nc1ccc(F)cc1	–	inconclusive [activator, single point]
COc1ccc2[nH]c3c(c2c1)CCN1C(=O)C(CC(=O)NCCC2=CCCCC2)C[C@H](C(=O)N2CCCCC2)[C@@]31CCc1ccccc1 (stereo not given in full)	inactive: -2.72%	–

Compound	activity, positive = re-replication	Potency
Cc1cc(C)n(CC(=O)NC2C(=O)N3C(C(=O)O)=C(CSc4nnc(C)s4)CSC23)n1 (stereo not given)	–	active: 0.731 µM
COC(=O)CSc1nc2c(cnn2-c2ccc(Cl)cc2)c(=O)[nH]1	inactive: -11.6%	–
CC1CCCCC12NC(=O)N(CC(=O)Nc1ccc(OC(F)F)cc1)C2=O (stereo not given)	inactive: -5.92%	–
Cc1coc2c(C)c3oc(=O)cc(-c4ccccc4)c3cc12	inactive: 1.17%	–
O=C(COc1ccc(Cl)cc1Cl)NNC(=S)NCc1ccco1	–	inconclusive [activator, partial curve, poor fit]
Cc1cnc(NC(=O)CN2CCN(c3ccccn3)CC2)s1	–	inconclusive [activator, single point]
NC(=O)c1ccc(NC(=O)Cc2ccc(S(=O)(=O)N3CCCCC3)cc2)cc1	inactive: 10.2%	–
COc1ccc(CCNc2nc(Cl)nc(NC(C)(C)CO)n2)cc1OC	–	inconclusive [activator, single point]
COc1ccccc1NS(=O)(=O)c1ccc(Cl)c(NC(=O)C(C)N2C(=O)c3ccccc3C2=O)c1 (stereo not given)	–	inconclusive [activator, partial curve, poor fit]
Cc1ccc(CNC(=O)[C@H](C)NC(=O)C2CCN(C(=O)[C@@H]3CCCN3C(=O)OC(C)(C)C)CC2)cc1	inactive: 7.68%	–
CSc1ccc(S(=O)(=O)NCC(=O)OCC(=O)NCCc2ccccc2)cc1[N+](=O)[O-]	–	inconclusive [activator, single point]
CCCCC(=O)Nc1ncc(Br)s1	–	inconclusive [activator, single point]
CS(=O)(=O)c1ccccc1C(=O)N(CCc1ccccc1)Cc1ccccc1	inactive: 13.9%	–
CCOC(=O)c1cnc(NCc2ccccc2)nc1C	inactive: 10.1%	–
O=C(CC1Nc2cccc3cccc(c23)NC1=O)Nc1ccccc1 (stereo not given)	inactive: 4.07%	–
Cc1ccc(C(=O)c2cn[nH]c2-c2cc(Cl)ccc2O)cc1	–	inconclusive [activator, single point]
CC(C)CNC(=O)c1ccccc1NC(=O)c1ccc(CSc2ccccc2)cc1	–	inconclusive [activator, partial curve, poor fit]
CCC(NC(=O)c1ccncc1)c1ccccc1 (stereo not given)	inactive: 9.06%	–
NNc1ncnc2scc(-c3ccc(Cl)cc3)c12	–	inconclusive [activator, single point]
O=C(/C=C/c1cccc(O)c1)c1cccnc1	–	active: 20.6 µM
S=c1nn[nH]n1C12CC3CC(CC(C3)C1)C2	–	inconclusive [activator, full curve, poor fit]
Cc1cccc2sc(NC(=O)C3CC3)nc12	–	inconclusive [activator, single point]
